Assay results as given in PMC5038302 (Antimicrobial Agents and Chemotherapy, 2016).

System: SPM-1
Experiment: Hydrolysis of avibactam followed by UV-Vis spectroscopy (230 nm)
Type: biochemical
Settings: 1 mM avibactam, 5 mM HEPES pH 7.5, 20 μM ZnCl2, 30°C
Description: A spectrum between 210 and 280 nm was then immediately recorded. After 20 h at 20°C, another spectrum was recorded; the appearance of this spectrum was not modified after further incubation. […] Two buffers were used: 5 mM HEPES (pH 7.5) and 50 mM cacodylate (pH 7.0), both containing 20 μM ZnCl2. […] Due to the low activity observed with NDM-1, incubation was continued overnight (20 h) ([23]).
For kinetic analyses, we first employed a spectroscopic assay for avibactam hydrolysis. […] With CphA, the ZnCl2 concentration was reduced to 1 μM since the binding of a second Zn(II) ion is inhibitory for most B2 MBLs ([38], [39]). […] Due to the very low activity observed with NDM-1, incubation was continued overnight (20 h). Because of the very low reaction rates, it was not possible to directly determine the Km and v values.

NC(=O)[C@@H]1CC[C@@H]2CN1C(=O)N2OS(=O)(=O)O [avibactam]
v0/E0, HEPES buffer: 1 ± 0.2 min⁻¹
